Hit rate of the full screen: of about 310,000 compounds, about 14,000 (4.5%) showed an effect of 50% or more. The effect is printed as a negative number. This is one part of the list.
Target: human ether-à-go-go-related gene (hERG) potassium channel (human, UniProt Q12809)
Experiment: primary screen, population patch clamp on CHO cells stably expressing hERG
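Note: peak tail current of the secondary pulse compared with the same well before compound.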

human ether-à-go-go-related gene (hERG) potassium channel, sequence (Q12809 whole entry, looked up): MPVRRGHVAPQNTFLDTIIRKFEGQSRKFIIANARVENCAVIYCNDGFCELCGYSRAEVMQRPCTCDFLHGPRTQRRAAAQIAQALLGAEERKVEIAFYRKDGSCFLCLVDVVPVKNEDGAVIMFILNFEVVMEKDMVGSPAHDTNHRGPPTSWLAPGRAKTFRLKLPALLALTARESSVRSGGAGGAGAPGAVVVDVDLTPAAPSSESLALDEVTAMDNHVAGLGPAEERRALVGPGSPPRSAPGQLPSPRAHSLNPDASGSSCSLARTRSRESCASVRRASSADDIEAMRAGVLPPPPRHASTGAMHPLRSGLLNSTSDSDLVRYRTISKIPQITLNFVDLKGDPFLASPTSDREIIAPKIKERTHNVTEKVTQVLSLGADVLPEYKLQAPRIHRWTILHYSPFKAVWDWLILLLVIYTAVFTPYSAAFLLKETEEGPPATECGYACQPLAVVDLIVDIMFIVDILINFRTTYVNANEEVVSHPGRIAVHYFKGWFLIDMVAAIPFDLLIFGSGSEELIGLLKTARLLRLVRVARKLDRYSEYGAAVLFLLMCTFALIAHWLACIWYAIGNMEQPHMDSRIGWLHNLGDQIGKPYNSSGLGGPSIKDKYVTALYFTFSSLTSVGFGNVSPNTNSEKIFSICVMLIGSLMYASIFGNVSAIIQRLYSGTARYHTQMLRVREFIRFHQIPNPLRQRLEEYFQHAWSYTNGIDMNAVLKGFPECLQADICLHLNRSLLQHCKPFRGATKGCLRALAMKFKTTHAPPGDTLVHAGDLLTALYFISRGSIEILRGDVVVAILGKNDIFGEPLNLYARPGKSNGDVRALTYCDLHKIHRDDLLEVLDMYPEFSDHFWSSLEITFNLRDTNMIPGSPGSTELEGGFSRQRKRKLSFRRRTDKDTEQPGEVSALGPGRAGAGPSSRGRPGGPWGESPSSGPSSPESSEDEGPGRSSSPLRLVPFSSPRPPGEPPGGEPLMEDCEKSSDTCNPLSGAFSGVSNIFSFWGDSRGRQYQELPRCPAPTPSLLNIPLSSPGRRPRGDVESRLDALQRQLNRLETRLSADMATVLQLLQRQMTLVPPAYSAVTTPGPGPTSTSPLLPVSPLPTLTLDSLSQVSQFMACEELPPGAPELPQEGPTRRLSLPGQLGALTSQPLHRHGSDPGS

Compound | hERG current change (%, negative = inhibition) at 10uM [%]
Cc1cc(=O)oc2c(CN3CCN(C)CC3)c(O)c(Cl)cc12 | -12.9
O=C(COc1ccc(Br)cc1)NCCCNC(=O)c1ccncc1 | -45.5
CCOC(=O)c1c(S(=O)(=O)NCC(=O)Nc2cccc(C)c2C)c(C)n(C)c1C | 17.4
CCNC(=S)N1C2CCC1CC(NC(=O)Nc1ccc(C(=O)OCC)cc1)C2 (centres unmarked) | 24.3
Cc1cccc(C(=O)N/N=C2/SCC(=O)N2Cc2ccccc2)c1 | -8.06
Brc1ccccc1OCCCCCN1CCOCC1.O=C(O)C(=O)O | -32.4
CCCCCCC/C=N/Nc1nnc(Cc2ccccc2)c(=O)[nH]1 | 33.2
COc1ccc(CNC(=O)CCc2cc(OC)c(OC)c(OC)c2)cc1 | 12.7
Clc1ccc(Cc2noc(-c3cccs3)n2)cc1 | 5.47
COc1ccc(OCCCn2c(=O)oc3ccccc32)cc1 | -4.51
CCN(CCCNC(=O)c1ccc2c(c1)NC(=O)CN2C)c1cccc(C)c1 | -16.5
CC1=CCC2C(=O)N(c3nc(C)cc(C)n3)C(=O)C2C1 (centres unmarked) | 23.9
COc1cc(NC(=O)CCCNC(=O)Cn2cnc3sc(C)c(C)c3c2=O)cc(OC)c1OC | -2.74
O=C(CSc1nnc2ccccn12)Nc1ccc(S(=O)(=O)N2CCOCC2)cc1 | -5.99
NC(=O)Nc1cc(Cl)ccc1Cl | 2.21
CCNc1nc(NCC)nc(N/N=C/c2ccc(N(C)C)cc2)n1 | -7.64
O=C(c1cccc(F)c1)N1CCN(C(=O)c2nn3cccnc3c2Cl)CC1 | 1.51
Cc1cnc(NC(=O)CSc2nnc(C)n2N)s1 | -1.2
CCn1c(=O)n(CC)c2cc(S(=O)(=O)NCCOc3ccccc3)c(C)cc21 | -5.88
O=C(O)c1cc(N2C(=O)CCC2=O)ccc1Cl | 7.84
CCC(=O)Nc1cc(C(C)C)c(O)cc1C | 7.96
c1ccc(Cn2c(-c3ccccc3)nc3nc4ccccc4nc32)cc1 | -4.99
COC(=O)C1=C(c2ccc(F)cc2OCc2ccccc2)C[C@@H]2CC[C@H]1N2C(=O)NCc1ccccc1 | -1.03
COc1cc2[nH]c(C(=O)Nc3ccc4c(c3)OCCO4)cc2c(OC)c1OC | 9.49

Compound | hERG current change (%, negative = inhibition) at 10uM [%]
CCOC(=O)c1cn[nH]c1NC(=S)Nc1ccccc1 | -10
Cc1cccc(N=c2c([N+](=O)[O-])nn(-c3ccc(Cl)cc3)n2O)c1 | -0.317
O=C(CC1Nc2ccccc2NC1=O)NCC1COc2ccccc2O1 (centres unmarked) | -11.3
COc1ccc(CNc2nc3ccccc3n2C(C)C)c(O)c1 | -6.72
O=C(NCCc1ccccc1)c1cc(-c2ccc3c(c2)OCO3)on1 | -7.29
CC(C)C(=O)Nc1nnc(CCN2CCOCC2)s1 | 5.7
CN1CCN(C(=O)C2=C[C@@H](C3CCCCC3)C[C@@H](OCc3ccc(CO)cc3)O2)CC1 | -13.6
CCN(CC)CCN1C(=O)C(O)=C(C(=O)c2ccc(C)o2)C1c1ccccn1 (centres unmarked) | 23.4
O=C(NCc1cccs1)NC1CCCCC1 | 3.88
COc1cccc(NS(=O)(=O)c2csc(C(N)=O)c2)c1 | 21.8
COC(=O)c1sc(=S)n(-c2ccc(Cl)cc2)c1C | -8.3
Cn1nc2c(c1C(=O)N1CCCC(C(=O)c3cc(F)ccc3F)C1)CCCC2 (centres unmarked) | -7.41
Cc1ccc(NC(=O)CN2CCN(CCN=CC3=C(O)CC(c4ccc(C)cc4)CC3=O)CC2)cc1 (centres unmarked) | -45.3
COc1ccccc1C(=O)N1CCc2ccccc21 | 10.2
CC1(C)C(=S)N(Cc2ccccc2)c2ccccc21 | 14.4
O=C(Nc1ccc(Br)cc1F)C1CC(=O)N(C2CCCCC2)C1 (centres unmarked) | 8.54
CCOc1c(OC)cccc1C(=O)NCC1(c2ccccc2)CCCC1 | -3
O=C(Nc1ccc(Nc2ccccc2)cc1)c1ccccc1 | -14.4
CCN(CC)C(=O)C(C)OC(=O)COc1ccc(Cl)cc1Cl (centres unmarked) | -10.3
CCCCN(CCCC)C(=S)NC(=O)C(C)(C)C | 5.27
CC(=O)C1=C(NC(=O)c2ccccc2F)C[C@@H]2[C@H]1C2(C)C | -1.47
CC(C)C(NC(=O)c1ccco1)C(=O)NCC(c1ccco1)N1CCCCC1 (centres unmarked) | 20
Cc1nnsc1C(=O)NNS(=O)(=O)c1cc(C(F)(F)F)cc(C(F)(F)F)c1 | 7.35
